Source: paper PMC7363780
No constants are given. Whether binding was seen depends on the method and setting. For part of these data: In cells and extracts the contact can be indirect. Some binding calls cover weakened binding; strength is not graded here. Tags and fused reporters may be left off the sequences shown.

Experiments:
[1] = molecular target: T1, GAL4-BD-CCR4 (S. cerevisiae) (UniProt P31384); test: two-hybrid; Gal4-based Matchmaker System 3, strain AH109; growth on SD/-Ade/-His/-Leu/-Trp (4DO) against SD/-Leu/-Trp (2DO), 30°C
T1 sequence: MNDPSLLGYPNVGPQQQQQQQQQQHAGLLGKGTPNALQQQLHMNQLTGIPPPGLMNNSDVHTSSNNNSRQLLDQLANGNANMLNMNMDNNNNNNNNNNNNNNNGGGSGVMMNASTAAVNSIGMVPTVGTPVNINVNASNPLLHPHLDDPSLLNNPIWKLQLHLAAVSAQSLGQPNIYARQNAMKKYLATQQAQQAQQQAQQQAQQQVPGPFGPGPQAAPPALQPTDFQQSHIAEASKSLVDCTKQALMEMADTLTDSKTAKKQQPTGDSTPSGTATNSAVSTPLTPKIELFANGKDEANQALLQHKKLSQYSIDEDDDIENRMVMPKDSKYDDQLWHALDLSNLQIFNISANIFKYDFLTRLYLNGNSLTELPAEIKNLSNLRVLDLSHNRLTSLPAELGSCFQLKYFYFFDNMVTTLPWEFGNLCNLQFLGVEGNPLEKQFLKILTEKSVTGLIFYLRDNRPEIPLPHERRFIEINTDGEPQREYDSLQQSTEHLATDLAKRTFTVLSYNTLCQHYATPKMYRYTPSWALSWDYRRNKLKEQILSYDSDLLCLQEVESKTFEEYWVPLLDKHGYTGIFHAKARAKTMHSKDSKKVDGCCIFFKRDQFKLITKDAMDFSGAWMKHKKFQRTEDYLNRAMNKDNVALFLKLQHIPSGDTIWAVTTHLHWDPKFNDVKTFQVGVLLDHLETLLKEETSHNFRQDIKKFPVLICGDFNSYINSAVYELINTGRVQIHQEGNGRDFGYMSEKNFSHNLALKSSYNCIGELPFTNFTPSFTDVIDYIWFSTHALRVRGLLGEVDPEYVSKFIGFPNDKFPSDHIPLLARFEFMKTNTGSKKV

[2] = molecular target: T2, Caf120-3HA (S. cerevisiae) (UniProt P53836); test: co-IP; anti-HA agarose immunopurification of the 3HA-tagged protein from extracts of exponentially growing yeast; lysis buffer 50 mM Tris-HCl pH 7.8, 150 mM NaCl, 1 mM EDTA, 10% glycerol, 1% Triton X-100; 1 h at 4°C; copurified Cip1-13myc detected with anti-myc
T2 sequence: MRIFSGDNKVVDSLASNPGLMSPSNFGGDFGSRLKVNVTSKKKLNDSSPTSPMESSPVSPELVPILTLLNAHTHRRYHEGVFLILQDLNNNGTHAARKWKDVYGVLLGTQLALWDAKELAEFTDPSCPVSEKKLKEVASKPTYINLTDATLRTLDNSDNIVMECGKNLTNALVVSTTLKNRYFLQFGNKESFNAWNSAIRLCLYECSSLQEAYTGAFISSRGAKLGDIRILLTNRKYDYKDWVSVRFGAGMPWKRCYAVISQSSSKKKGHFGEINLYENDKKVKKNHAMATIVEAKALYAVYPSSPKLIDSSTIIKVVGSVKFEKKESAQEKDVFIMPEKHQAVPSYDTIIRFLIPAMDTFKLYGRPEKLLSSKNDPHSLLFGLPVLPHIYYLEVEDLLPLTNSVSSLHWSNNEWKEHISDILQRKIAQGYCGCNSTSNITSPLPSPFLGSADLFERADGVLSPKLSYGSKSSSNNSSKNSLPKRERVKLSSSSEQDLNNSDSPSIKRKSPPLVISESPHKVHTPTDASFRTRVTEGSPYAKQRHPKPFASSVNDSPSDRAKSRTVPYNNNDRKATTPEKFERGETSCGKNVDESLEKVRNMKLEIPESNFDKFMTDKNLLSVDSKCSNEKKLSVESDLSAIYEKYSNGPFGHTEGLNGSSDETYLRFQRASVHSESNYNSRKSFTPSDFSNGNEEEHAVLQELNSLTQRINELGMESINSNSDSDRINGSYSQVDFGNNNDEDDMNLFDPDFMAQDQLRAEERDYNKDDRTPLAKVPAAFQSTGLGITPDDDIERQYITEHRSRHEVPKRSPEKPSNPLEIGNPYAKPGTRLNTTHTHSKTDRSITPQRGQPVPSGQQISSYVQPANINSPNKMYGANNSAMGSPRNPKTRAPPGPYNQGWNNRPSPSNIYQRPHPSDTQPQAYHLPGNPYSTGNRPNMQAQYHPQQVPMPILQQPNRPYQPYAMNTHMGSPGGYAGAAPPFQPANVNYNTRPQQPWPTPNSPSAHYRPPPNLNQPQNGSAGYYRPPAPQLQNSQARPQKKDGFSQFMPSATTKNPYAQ

[3] = molecular target: T3, Ccr4-3HA (S. cerevisiae) (UniProt P31384); test: as above
T3 sequence: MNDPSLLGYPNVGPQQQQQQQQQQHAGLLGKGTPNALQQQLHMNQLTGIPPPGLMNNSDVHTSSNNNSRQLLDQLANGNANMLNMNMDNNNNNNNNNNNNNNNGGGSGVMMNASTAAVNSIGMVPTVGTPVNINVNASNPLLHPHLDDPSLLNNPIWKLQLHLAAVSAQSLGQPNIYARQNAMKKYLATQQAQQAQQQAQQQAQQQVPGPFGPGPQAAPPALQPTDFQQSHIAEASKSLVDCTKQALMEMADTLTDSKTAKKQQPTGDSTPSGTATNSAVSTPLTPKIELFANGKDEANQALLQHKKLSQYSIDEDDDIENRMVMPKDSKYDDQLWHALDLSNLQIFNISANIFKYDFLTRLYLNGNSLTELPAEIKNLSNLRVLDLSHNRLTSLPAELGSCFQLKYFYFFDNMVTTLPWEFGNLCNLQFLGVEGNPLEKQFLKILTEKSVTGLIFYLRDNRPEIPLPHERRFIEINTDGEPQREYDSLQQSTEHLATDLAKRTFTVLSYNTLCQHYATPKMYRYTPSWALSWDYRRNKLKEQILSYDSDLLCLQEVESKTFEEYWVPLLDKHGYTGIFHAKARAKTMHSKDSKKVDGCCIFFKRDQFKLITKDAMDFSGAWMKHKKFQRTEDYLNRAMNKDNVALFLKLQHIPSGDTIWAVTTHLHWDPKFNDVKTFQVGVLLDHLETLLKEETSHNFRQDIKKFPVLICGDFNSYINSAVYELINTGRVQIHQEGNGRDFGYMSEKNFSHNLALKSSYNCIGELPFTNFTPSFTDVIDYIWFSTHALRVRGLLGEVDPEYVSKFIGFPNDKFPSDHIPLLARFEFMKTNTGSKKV

[4] = molecular target: T4, GAL4-BD-CIP1 (S. cerevisiae) (UniProt Q02606); test: two-hybrid; Gal4-based Matchmaker System 3, strain AH109; growth on SD/-Ade/-His/-Leu/-Trp (4DO) against SD/-Leu/-Trp (2DO), 30°C
T4 sequence: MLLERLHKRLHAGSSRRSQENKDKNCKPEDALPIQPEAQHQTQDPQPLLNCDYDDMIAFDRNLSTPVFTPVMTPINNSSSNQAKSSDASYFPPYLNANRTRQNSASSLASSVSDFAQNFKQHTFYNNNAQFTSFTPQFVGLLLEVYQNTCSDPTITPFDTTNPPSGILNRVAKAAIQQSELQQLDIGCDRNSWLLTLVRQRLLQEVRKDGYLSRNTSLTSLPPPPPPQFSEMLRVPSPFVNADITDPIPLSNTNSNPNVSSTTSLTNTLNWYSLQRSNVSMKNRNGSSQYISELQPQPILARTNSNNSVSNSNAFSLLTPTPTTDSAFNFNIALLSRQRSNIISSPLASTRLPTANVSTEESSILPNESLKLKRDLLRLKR

B1: GAL4-AD-CIP1 (protein, UniProt Q02606 1-381)
chain: MLLERLHKRLHAGSSRRSQENKDKNCKPEDALPIQPEAQHQTQDPQPLLNCDYDDMIAFDRNLSTPVFTPVMTPINNSSSNQAKSSDASYFPPYLNANRTRQNSASSLASSVSDFAQNFKQHTFYNNNAQFTSFTPQFVGLLLEVYQNTCSDPTITPFDTTNPPSGILNRVAKAAIQQSELQQLDIGCDRNSWLLTLVRQRLLQEVRKDGYLSRNTSLTSLPPPPPPQFSEMLRVPSPFVNADITDPIPLSNTNSNPNVSSTTSLTNTLNWYSLQRSNVSMKNRNGSSQYISELQPQPILARTNSNNSVSNSNAFSLLTPTPTTDSAFNFNIALLSRQRSNIISSPLASTRLPTANVSTEESSILPNESLKLKRDLLRLKR
binding [1]: binds

B2: Cip1-13myc (protein, UniProt Q02606 1-381)
chain: MLLERLHKRLHAGSSRRSQENKDKNCKPEDALPIQPEAQHQTQDPQPLLNCDYDDMIAFDRNLSTPVFTPVMTPINNSSSNQAKSSDASYFPPYLNANRTRQNSASSLASSVSDFAQNFKQHTFYNNNAQFTSFTPQFVGLLLEVYQNTCSDPTITPFDTTNPPSGILNRVAKAAIQQSELQQLDIGCDRNSWLLTLVRQRLLQEVRKDGYLSRNTSLTSLPPPPPPQFSEMLRVPSPFVNADITDPIPLSNTNSNPNVSSTTSLTNTLNWYSLQRSNVSMKNRNGSSQYISELQPQPILARTNSNNSVSNSNAFSLLTPTPTTDSAFNFNIALLSRQRSNIISSPLASTRLPTANVSTEESSILPNESLKLKRDLLRLKR
binding [2]: binds
binding [3]: binds

B3: GAL4-AD-CAF120 (protein, UniProt P53836 1-1060)
chain: MRIFSGDNKVVDSLASNPGLMSPSNFGGDFGSRLKVNVTSKKKLNDSSPTSPMESSPVSPELVPILTLLNAHTHRRYHEGVFLILQDLNNNGTHAARKWKDVYGVLLGTQLALWDAKELAEFTDPSCPVSEKKLKEVASKPTYINLTDATLRTLDNSDNIVMECGKNLTNALVVSTTLKNRYFLQFGNKESFNAWNSAIRLCLYECSSLQEAYTGAFISSRGAKLGDIRILLTNRKYDYKDWVSVRFGAGMPWKRCYAVISQSSSKKKGHFGEINLYENDKKVKKNHAMATIVEAKALYAVYPSSPKLIDSSTIIKVVGSVKFEKKESAQEKDVFIMPEKHQAVPSYDTIIRFLIPAMDTFKLYGRPEKLLSSKNDPHSLLFGLPVLPHIYYLEVEDLLPLTNSVSSLHWSNNEWKEHISDILQRKIAQGYCGCNSTSNITSPLPSPFLGSADLFERADGVLSPKLSYGSKSSSNNSSKNSLPKRERVKLSSSSEQDLNNSDSPSIKRKSPPLVISESPHKVHTPTDASFRTRVTEGSPYAKQRHPKPFASSVNDSPSDRAKSRTVPYNNNDRKATTPEKFERGETSCGKNVDESLEKVRNMKLEIPESNFDKFMTDKNLLSVDSKCSNEKKLSVESDLSAIYEKYSNGPFGHTEGLNGSSDETYLRFQRASVHSESNYNSRKSFTPSDFSNGNEEEHAVLQELNSLTQRINELGMESINSNSDSDRINGSYSQVDFGNNNDEDDMNLFDPDFMAQDQLRAEERDYNKDDRTPLAKVPAAFQSTGLGITPDDDIERQYITEHRSRHEVPKRSPEKPSNPLEIGNPYAKPGTRLNTTHTHSKTDRSITPQRGQPVPSGQQISSYVQPANINSPNKMYGANNSAMGSPRNPKTRAPPGPYNQGWNNRPSPSNIYQRPHPSDTQPQAYHLPGNPYSTGNRPNMQAQYHPQQVPMPILQQPNRPYQPYAMNTHMGSPGGYAGAAPPFQPANVNYNTRPQQPWPTPNSPSAHYRPPPNLNQPQNGSAGYYRPPAPQLQNSQARPQKKDGFSQFMPSATTKNPYAQ
binding [4]: binds

B4: GAL4-AD-CDC36 (protein, UniProt P06100 1-191)
chain: MEKFGLKALVPLLKLEDKELSSTYDHSMTLGADLSSMLYSLGIPRDSQDHRVLDTFQSPWAETSRSEVEPRFFTPESFTNIPGVLQSTVTPPCFNSIQNDQQRVALFQDETLFFLFYKHPGTVIQELTYLELRKRNWRYHKTLKAWLTKDPMMEPIVSADGLSERGSYVFFDPQRWEKCQRDFLLFYNAIM
binding [4]: no binding

B5: GAL4-AD-NOT5 (protein, UniProt Q12514 1-560)
chain: MSQRKLQQDIDKLLKKVKEGIEDFDDIYEKFQSTDPSNSSHREKLESDLKREIKKLQKHRDQIKTWLSKEDVKDKQSVLMTNRRLIENGMERFKSVEKLMKTKQFSKEALTNPDIIKDPKELKKRDQVLFIHDCLDELQKQLEQYEAQENEEQTERHEFHIANLENILKKLQNNEMDPEPVEEFQDDIKYYVENNDDPDFIEYDTIYEDMGCEIQPSSSNNEAPKEGNNQTSLSSIRSSKKQERSPKKKAPQRDVSISDRATTPIAPGVESASQSISSTPTPVSTDTPLHTVKDDSIKFDNSTLGTPTTHVSMKKKESENDSEQQLNFPPDRTDEIRKTIQHDVETNAAFQNPLFNDELKYWLDSKRYLMQPLQEMSPKMVSQLESSLLNCPDSLDADSPCLYTKPLSLPHPTSIFFPNEPIRFVYPYDVPLNLTNNENDTDNKFGKDSKAKSKKDDDIYSRTSLARIFMKFDLDTLFFIFYHYQGSYEQFLAARELFKNRNWLFNKVDRCWYYKEIEKLPPGMGKSEEESWRYFDYKKSWLARRCGNDFVYNEEDFEKL
binding [4]: no binding
